From patent US20120189541A1 (AbbVie / Abbott, published 2012)

Key:
Recombinant Human IL-1β [1] = target: T1, Recombinant Human IL-1β (human, UniProt P01584 117-269); experiment: capture ELISA: DVD-Ig captured by anti-human Fc, biotinylated antigen titrated; N-terminal VD
T1 construct: Bought recombinant protein; Biotinylated in the capture ELISA; also called hIL-1β; IL-1 beta
Method: (§1) Plates were washed five times in washing buffer (PBS containing 0.05% Tween 20) and blocked for 1 hour at 25° C. with 200 μl per well superblock blocking buffer (Thermo scientific, #37515). Blocking buffer was removed, and 2 μg/ml of each antibody or DVD-Ig molecule in PBS containing 10% superblock, 0.5% Tween-20 was added to the wells at 100 μl per well and incubated at 25° C. for 1 hour. The wells were washed five times in 1×PBST, and 1 μg/ml biotinylated antigen was titrated at 1:6 serial dilutions (for a range of μg to pg in PBS containing 10% superblock, 0.05% tween 20). Each dilution of antigen was then added to the plates and incubated for 1 hour at 25° C. The wells were washed five times in 1×PBST and incubated for 1 hour at 25° C. with polyHRP streptavidin (KPL #474-3000, Gaithersburg, Md.). The wells were washed five times in 1×PBST, and 100 μl of ULTRA-TMB ELISA (Pierce, Rockford, Ill.) were added per well. Following color development the reaction was stopped with 1N HCL and absorbance at 450 nm is measured.

Recombinant Human IL-1α [2] = target: T2, Recombinant Human IL-1α (human, UniProt P01583 113-271); experiment: cell-based or functional assay
T2 sequence (looked up): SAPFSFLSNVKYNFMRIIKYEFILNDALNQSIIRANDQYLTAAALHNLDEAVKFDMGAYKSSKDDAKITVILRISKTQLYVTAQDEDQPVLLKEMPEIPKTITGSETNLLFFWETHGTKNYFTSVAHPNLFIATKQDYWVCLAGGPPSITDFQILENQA

Cynomolgus IL-1β [3] = target: T3, Cynomolgus IL-1β (cynomolgus, UniProt P79182 117-268, limits assumed); experiment: cell-based or functional assay
T3 sequence (looked up): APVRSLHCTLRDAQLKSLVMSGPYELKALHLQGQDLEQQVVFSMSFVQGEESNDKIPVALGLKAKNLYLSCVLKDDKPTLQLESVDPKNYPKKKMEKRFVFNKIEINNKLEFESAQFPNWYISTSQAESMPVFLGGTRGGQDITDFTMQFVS

Recombinant Human IL-1β [4] = target: T1, Recombinant Human IL-1β; experiment: cell-based or functional assay
Cynomolgus IL-1β [5] = target: T3, Cynomolgus IL-1β; experiment: SPR (BIACORE), cynomolgus antigen
Cynomolgus IL-1α [6] = target: T4, Cynomolgus IL-1α (cynomolgus, UniProt P79340 113-271, limits assumed); experiment: SPR (BIACORE), cynomolgus antigen
T4 construct: also called cyno IL-1α; cynomolgus IL-1 alpha
T4 sequence (looked up): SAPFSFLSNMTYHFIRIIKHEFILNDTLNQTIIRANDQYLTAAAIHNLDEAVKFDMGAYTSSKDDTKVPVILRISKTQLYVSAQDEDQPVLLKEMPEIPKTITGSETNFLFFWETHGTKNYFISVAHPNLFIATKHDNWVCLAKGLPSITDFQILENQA

Recombinant Human IL-1α [7] = target: T2, Recombinant Human IL-1α; experiment: capture ELISA: DVD-Ig captured by anti-human Fc, biotinylated antigen titrated; C-terminal VD
Method: as §1

Recombinant Human IL-1α [8] = target: T2, Recombinant Human IL-1α; experiment: SPR (BIACORE), human antigen
Method: (§2) The BIACORE assay (Biacore, Inc, Piscataway, N.J.) determines the affinity of antibodies or DVD-Ig molecule with kinetic measurements of on-rate and off-rate constants. Binding of antibodies or DVD-Ig molecule to a target antigen (for example, a purified recombinant target antigen) is determined by surface plasmon resonance-based measurements with a Biacore® 1000 or 3000 instrument (Biacore® AB, Uppsala, Sweden) using running HBS-EP (10 mM HEPES [pH 7.4], 150 mM NaCl, 3 mM EDTA, and 0.005% surfactant P20) at 25° C. All chemicals are obtained from Biacore® AB (Uppsala, Sweden) or otherwise from a different source as described in the text. For example, approximately 5000 RU of goat anti-mouse IgG, (Fcγ), fragment specific polyclonal antibody (Pierce Biotechnology Inc, Rockford, Ill.) diluted in 10 mM sodium acetate (pH 4.5) is directly immobilized across a CM5 research grade biosensor chip using a standard amine coupling kit according to manufacturer's instructions and procedures at 25 μg/ml. Unreacted moieties on the biosensor surface are blocked with ethanolamine. Modified carboxymethyl dextran surface in flowcell 2 and 4 is used as a reaction surface. Unmodified carboxymethyl dextran without goat anti-mouse IgG in flow cell 1 and 3 is used as the reference surface. For kinetic analysis, rate equations derived from the 1:1 Langmuir binding model are fitted simultaneously to association and dissociation phases of all eight injections (using global fit analysis) with the use of Biaevaluation 4.0.1 software. Purified antibodies or DVD-Ig molecule are diluted in HEPES-buffered saline for capture across goat anti-mouse IgG specific reaction surfaces. Antibodies or DVD-Ig molecule to be captured as a ligand (25 μg/ml) are injected over reaction matrices at a flow rate of 5 μl/min. The association and dissociation rate constants, kₒₙ (M⁻¹s⁻¹) and koff (s⁻¹) are determined under a continuous flow rate of 25 μl/minute. Rate constants are derived by making kinetic binding measurements at different antigen concentrations ranging from 10-200 nM. The equilibrium dissociation constant (M) of the reaction between antibodies or DVD-Ig molecules and the target antigen is then calculated from the kinetic rate constants by the following formula: KD=koff/kₒₙ. Binding is recorded as a function of time and kinetic rate constants are calculated.

Recombinant Human IL-1β [9] = target: T1, Recombinant Human IL-1β; experiment: SPR (BIACORE), human antigen
Method: as §2

Cynomolgus IL-1α [10] = target: T4, Cynomolgus IL-1α; experiment: cell-based or functional assay

B1: E26.35-SS-3D12r16 (bispecific antibody, human IgG1, kappa)
heavy: EVQLVESGGGVVQPGRSLRLSCSASGFIFSRYDMSWVRQAPGKGLEWVAYISHGGAGTYYPDSVKGRFTISRDNSKNTLFLQMDSLRAEDTAVYYCARGGVYKGYFDVWGQGTPVTVSSASTKGPEVQLVQSGAEVKKPGASVKVSCKASGYTFKYYGMNWVRQAPGQGLERMGWINTYTGQSTYADDFKGRVTFTLDTSTSTAYMELSSLRSEDTAVYYCARDIYYYGSDFAMDYWGQGTTVTVSSASTKGPSVFPLAPSSKSTSGGTAALGCLVKDYFPEPVTVSWNSGALTSGVHTFPAVLQSSGLYSLSSVVTVPSSSLGTQTYICNVNHKPSNTKVDKKV[letters of human IgG1 Fc with changes not shown]
light: DIQMTQSPSSLSASVGDRVTITCRASGNIHNYLTWYQQTPGKAPKLLIYNAKTLADGVPSRFSGSGSGTDYTFTISSLQPEDIATYYCQHFWSIPYTFGQGTKLQITRTVAAPDIQMTQSPSSLSASVGDRVTITCRASQDISNMLNWYQQKPGKAPKLLIYYTSRLKPGVPSRFSGSGSGTDYTFTISSLQPEDIATYFCQQGKTAPYTFGQGTKLEIKRTVAAPSVFIFPPSDEQLKSGTASVVCLLNNFYPREAKVQWKVDNALQSGNSQESVTEQDSKDSTYSLSSTLTLSKADYEKHKVYACEVTHQGLSSPVTKSFNRGEC
notes: DVD-Ig, outer domain anti-IL-1β, inner domain anti-IL-1α, short linkers
EC50 (Recombinant Human IL-1β [1]): 0.0063 nM
Human IL-1α Neutralization Assay EC50 (IL-1 induced hIL-8, MRC-5 cells) (Recombinant Human IL-1α [2]): 0.0355 nM
Cyno IL-1β Neutralization Assay EC50 (IL-1 induced hIL-8, MRC-5 cells) (Cynomolgus IL-1β [3]): 0.004 nM
Human IL-1β Neutralization Assay EC50 (IL-1 induced hIL-8, MRC-5 cells) (Recombinant Human IL-1β [4]): 0.0029 nM
Kd (Cynomolgus IL-1β [5]): 0.02 nM
koff (Cynomolgus IL-1β [5]): 7.91e-06 s⁻¹
kon (Cynomolgus IL-1β [5]): 395000 M⁻¹ s⁻¹
Kd (Cynomolgus IL-1α [6]): 0.0811 nM
koff (Cynomolgus IL-1α [6]): 8.23e-06 s⁻¹
kon (Cynomolgus IL-1α [6]): 101000 M⁻¹ s⁻¹
EC50 (Recombinant Human IL-1α [7]): 0.0106 nM
Kd (Recombinant Human IL-1α [8]): < 0.01 nM
koff (Recombinant Human IL-1α [8]): < 1e-06 s⁻¹
kon (Recombinant Human IL-1α [8]): 93600 M⁻¹ s⁻¹
Kd (Recombinant Human IL-1β [9]): 0.00352 nM
koff (Recombinant Human IL-1β [9]): 4.11e-06 s⁻¹
kon (Recombinant Human IL-1β [9]): 1.17e+06 M⁻¹ s⁻¹
Cyno IL-1α Neutralization Assay EC50 (IL-1 induced hIL-8, MRC-5 cells) (Cynomolgus IL-1α [10]): 0.101 nM
